# Laboratory results taken from PMC6919601, “Identification of Plasmodium dipeptidyl aminopeptidase allosteric inhibitors by high throughput screening” (PLoS ONE, 2019).
# The whole screen tested about 110,000 compounds, of which about 230 (0.21%) showed an effect of 50% or more. Some of the results follow.
# Target: DPAP1 (Plasmodium falciparum, UniProt Q8IIJ9)
# Test: primary screen, percent inhibition; read by cleavage of a fluorogenic dipeptide substrate; higher = more effect of the substance
# Set-up: species or system P. falciparum D10 trophozoite lysates; single well
# 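Further: 30 min substrate incubation versus DMSO and 10 µM JCP410 controls.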
# Chain of DPAP1 (Q8IIJ9 whole entry, looked up): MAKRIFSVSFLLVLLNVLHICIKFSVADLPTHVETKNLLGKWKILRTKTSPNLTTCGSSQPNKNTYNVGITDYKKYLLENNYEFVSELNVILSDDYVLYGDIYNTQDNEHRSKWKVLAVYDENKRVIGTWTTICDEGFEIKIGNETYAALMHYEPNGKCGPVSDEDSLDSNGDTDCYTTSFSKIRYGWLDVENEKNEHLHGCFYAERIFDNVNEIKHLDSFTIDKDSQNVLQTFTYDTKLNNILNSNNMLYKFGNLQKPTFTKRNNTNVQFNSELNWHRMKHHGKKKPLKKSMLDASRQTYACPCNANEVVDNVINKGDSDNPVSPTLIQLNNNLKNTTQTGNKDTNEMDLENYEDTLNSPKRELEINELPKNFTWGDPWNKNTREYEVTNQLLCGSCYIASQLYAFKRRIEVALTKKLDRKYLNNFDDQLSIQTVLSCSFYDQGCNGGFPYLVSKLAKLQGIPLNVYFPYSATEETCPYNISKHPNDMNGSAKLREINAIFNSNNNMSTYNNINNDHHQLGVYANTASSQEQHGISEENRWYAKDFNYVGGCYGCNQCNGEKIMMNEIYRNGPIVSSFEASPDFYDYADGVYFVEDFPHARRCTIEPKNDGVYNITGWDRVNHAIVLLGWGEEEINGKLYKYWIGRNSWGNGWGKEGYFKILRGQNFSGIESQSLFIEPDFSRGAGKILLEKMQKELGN
row,SMILES,% Inhibition @ 10 uM
1,CCN(CC)S(=O)(=O)c1cccc(C(=O)NC2CCCCC2)c1,-6.44%
2,Clc1ccc2c(c1)[C@H]1OCC[C@H]1[C@@H](c1ccco1)N2,-2.65%
3,CN1C(=O)C(=CNc2ccccc2O)C(=O)N(C)C1=O,-1.06%
4,CSc1ncc(Cl)c(C(=O)N(Cc2ccccc2)C2CCS(=O)(=O)C2)n1 (centres unmarked),0.569%
5,COc1cccc2c1OC1(CCN(C(C)=O)CC1)N1N=C(c3ccccc3)CC21 (centres unmarked),1.52%
6,CC1(C)CC(N(Cc2cccs2)C(=O)c2ccco2)CCO1 (centres unmarked),0.032%
7,Cc1ccc2c(c1)-c1onc(C(=O)NC3CCCC(C)C3C)c1CO2 (centres unmarked),-3.47%
8,CC(C)N1C(=O)S/C(=C/c2ccc(N3CCOCC3)cc2)C1=O,2.22%
9,O=C(CC1COc2ccccc2O1)Nc1ccc(Br)cc1 (centres unmarked),-3.04%
10,COc1cccc2sc(Nc3nc4cc5c(cc4s3)OCCO5)nc12,-4.96%
11,COc1cc(/C=C2\SC(Nc3ccccc3Cl)=NC2=O)ccc1OCC(=O)O,7.76%
12,Nc1nonc1C(=O)NCCCNC(=O)c1nonc1N,-3.13%
13,CCn1cc(C2=NOC(C(=O)Nc3cc(C)on3)C2)c(C)n1 (centres unmarked),-8.58%
14,O=C(Cn1cc(S(=O)(=O)Cc2ccccc2)c2ccccc21)NCc1ccccc1Cl,3.72%
15,COc1ccc(OC)c(NS(=O)(=O)c2ccc(Cl)nc2)c1,5.31%
16,CC1CCN(C(=O)C2C3C=CC(C3)C2C(=O)O)CC1 (centres unmarked),-1.32%
17,CCOc1ccccc1NC(=O)c1cc2ccccc2cc1O,12.6%
18,O=C(/C=C/c1ccccc1)Nc1ccc(Cl)c(Cl)c1,-1.38%
19,CC(CCc1ccccc1)NC(=O)CN1CCN(Cc2ccc(F)cc2Cl)C1=O (centres unmarked),0.51%
20,COCCN1C(=O)/C(=C/c2ccc(C)cc2)S/C1=N\c1ccccc1,-11.1%
21,CCN1CCN(Cc2ccccc2C(F)(F)F)CC1,-3.56%
22,NC(=O)c1cc(S(=O)(=O)N2CCN(c3ncccn3)CC2)cs1,0.879%
23,CCOc1ccccc1C(=O)Nc1ccc(Cl)cc1,-6.2%
24,Cc1nn2c(=O)/c(=C/c3ccccc3)sc2nc1=O,-1.75%
25,CCN1CCN(C(=O)c2oc3ccc4c(c3c2C)C(=O)CC2(CCCCC2)O4)CC1,3.87%
26,CCOc1ccccc1Nc1nc(N)nc(CN(C)C2CCCCC2)n1,-4.49%

row,SMILES,% Inhibition @ 10 uM
1,COCc1cc(C)nc(SCC(=O)NCc2ccco2)c1C#N,-5.34%
2,Cc1nc(C)c(-c2cc(C)c3c(C)nc(C)nc3n2)c(N)n1,1.44%
3,COc1ccc(NC(=O)CSc2n[nH]c(-c3ccccc3O)n2)cc1,-1.08%
4,COc1ccc(OCC(=O)Nc2c(C(=O)N3CCN(c4ncccn4)CC3)oc3ccccc23)cc1,4.6%
5,Cc1ccccc1CNCc1c(C(=O)O)n(Cc2cccc(F)c2)c2ccccc12,-5.3%
6,CC(C)c1ccc(OCC(O)CN2CCN(c3ccccc3F)CC2)cc1 (centres unmarked),-8.78%
7,CSc1nc(/C=C2\C=Nc3ccccc32)c(O)[nH]1,0.76%
8,COc1ccc(Cc2nc3ccccc3[nH]2)cc1OC,-10.8%
9,CC1CCCCN1CCNC(=O)Cn1ncc2c3ccccc3n(C)c2c1=O (centres unmarked),-0.23%
10,COc1ccc(CN2CCCCC2CCO)cc1Br (centres unmarked),-3.27%
11,COc1ccc(C(=O)N2CCN(Cc3cccc(OC)c3OC)CC2)cc1OC,-15.2%
12,Cc1ccc2nc(O)c3cc(C(=O)NCCc4ccsc4)sc3c2c1,1.72%
13,CC(C)OC(=O)C1=C(N)OC2=C(C(=O)CC(C)(C)C2)C1c1ccccc1 (centres unmarked),-5.36%
14,COc1ccc(S(=O)(=O)N(CC(=O)Nc2ccccc2Cl)c2ccc(C)cc2)cc1OC,5.07%
15,COc1ccc(C2C(C(=O)Nc3cnc4ccccc4c3)c3ccccc3C(=O)N2C)cc1 (centres unmarked),5.11%
16,COc1ccc(-c2noc(CNC(=O)COc3ccc(Br)cc3)n2)cc1,0.276%
17,CC(C)NC(=O)CN(c1ccc(C23C[C@H]4C[C@@H](C2)C[C@@H](C3)C4)cc1)S(C)(=O)=O,-4.49%
18,COc1ccc2nc(NC(=O)CSc3nnnn3-c3ccccc3)sc2c1,3.47%
19,COc1ccc(OC2CCN(S(=O)(=O)c3ccc(F)cc3)CC2)cc1,3.66%
20,O=C(Nc1ccccc1O)c1cccc(S(=O)(=O)Nc2ccccc2Cl)c1,-1.78%
21,O=C(CN1C(=O)CSc2ncccc21)NC1CCCCCC1,4.22%
22,CC(=O)N(CC(=O)Nc1sc2c(c1C(=O)Nc1ccc(Br)cc1)CCC2)C(C)C,-2.66%
23,COc1cc(OC)cc(C(=O)N2CCN(Cc3ccc(OC)c(OC)c3OC)CC2)c1,-0.478%
24,Cc1ccccc1N(CC(=O)NC1CC2CCC1C2)S(=O)(=O)c1ccccc1 (centres unmarked),-4.82%
25,C=CCn1c(SCC)nc2c(c1=O)C(C)(C)Cc1ccccc1-2,2.38%
26,COc1ccc(C(CC(=O)O)NC(=O)Cc2ccccc2)cc1 (centres unmarked),2.7%

row,SMILES,% Inhibition @ 10 uM
1,Cc1cc(NC(=O)CSc2nnc(Cc3cccn3C)n2-c2cccc(C)c2C)no1,2.12%
2,COc1cc(-c2noc(-c3cc4c(ccc5ccccc54)oc3=O)n2)cc(OC)c1OC,2.73%
3,COc1cccc(OCc2ccc(C(=O)O)cc2)c1,1.96%
4,CC(=O)c1cn(-c2ccc(CCc3ccc(-n4c(=O)[nH]cc(C(C)=O)c4=O)cc3)cc2)c(=O)[nH]c1=O,-4.68%
5,Cc1ccccc1NC(=O)CC1(c2ccccc2)C(=O)c2ccccc2C1=O,1.7%
6,COCCCNC(=O)c1c(C)oc2ncn(C)c(=O)c12,-2.19%
7,CCCN1CCC(NCCc2ccccc2F)CC1,3.18%
8,COc1ccc(-c2cc3nc(C)cc(O)n3n2)cc1,3.16%
9,COc1ccc2c(c1OC)C(=O)OC2Nc1cc(C)ccn1 (centres unmarked),-1.47%
10,CC(C)C(C(=O)Nc1ccc(Br)cc1)N1C(=O)c2ccccc2C1=O (centres unmarked),1.96%
11,O=C1NC(=O)C(=Cc2ccccc2OCCO)C(=O)N1,-0.597%
12,Cc1ccccc1NCN1C(=O)C2CCCCC2C1=O (centres unmarked),3.91%
13,CCc1ccc2ncc(S(=O)(=O)c3ccccc3)c(N3CCOCC3)c2c1,-7.84%
14,CCC(C)(Nc1ccc(Cl)cc1)c1nnnn1C(/C=C\c1ccc(Cl)cc1Cl)C(C)(C)C (centres unmarked),-1.29%
15,CCC(CC)NCc1c[nH]c2ccccc12,-0.034%
16,Cc1nn(C(C)C(=O)NCCCN2CCc3ccccc3C2)c(=O)c2c1sc1ccccc12 (centres unmarked),-6.3%
17,O=C(CN(Cc1ccc(F)cc1)S(=O)(=O)c1ccccc1)Nc1ccccc1Br,-6.81%
18,O=S(=O)(c1ccc(C2CCCCC2)cc1)N1CCn2c(nc3ccccc32)C1,0.66%
19,O=C(NCCCc1ccccc1)c1cnc2ccccn2c1=O,3.32%
20,CCN1C(=O)/C(=C\c2ccc(C)cc2)C(C(=O)OC)=C1C,-4.93%
21,O=C(Nc1ccccc1C(=O)N1CCCCCC1)c1ccc(F)cc1,2.49%
22,CCO/C(O)=C1\C(C)=Nc2nnnn2C1c1ccc(OC)c(Br)c1 (centres unmarked),0.565%
23,CC1=C(C(=O)OCC2CCCO2)C(c2ccc(Cl)cc2)NC(=O)N1 (centres unmarked),-2.2%
24,Cc1ccc(OC2OC(CO)C(O)C(O)C2O)cc1C (centres unmarked),-5.32%
25,Cc1cc(NC(=O)CSc2nc3nccnc3c(=O)n2CC2CCCO2)[nH]n1 (centres unmarked),2.25%
26,O=C1CC(C2CCCO2)C(=O)N1c1ccccc1 (centres unmarked),-4.13%

row,SMILES,% Inhibition @ 10 uM
1,O=C(NCc1cccc(Cl)c1)c1cc2ccccn2n1,-0.0115%
2,O=C(CCN1C(=O)c2ccccc2C1=O)N1CCCC1,1.89%
3,Cc1oc2c(c1C(=O)NCc1ccccn1)C(=O)c1ccccc1C2=O,-7.35%
4,O=[N+]([O-])c1ccc(N2CCN(CC(O)COc3ccccc3)CC2)cc1 (centres unmarked),0.467%
5,O=C(CSc1nnc(-c2cccnc2)n1-c1ccccc1)NCc1ccccc1,-0.703%
6,CC1=C(C(=O)N2CCCCC2)C(c2ccc(Cl)cc2)C2=C(O)CC(C)(C)CC2=N1 (centres unmarked),-0.864%
7,C=CCn1c(Oc2ccccc2Cl)nc2c1c(=O)n(C)c(=O)n2C,-2.67%
8,CCCCOc1ccc(C(C)(C#N)CC#N)cc1 (centres unmarked),2.51%
9,CC(=O)Nc1nc2ccc(NC(=O)c3sc4ccccc4c3Cl)cc2s1,5.89%
10,O=C(CSc1cn(CC(=O)N2CCOCC2)c2ccccc12)NCc1ccccc1,-3.13%
11,O=C(O)c1cc(Br)ccc1NS(=O)(=O)c1cccc2nsnc12,3.12%
12,CC(C)(C)C(/C=C\c1ccc(Cl)cc1Cl)n1nnnc1C(C)(C)N1CCOCC1 (centres unmarked),-3.92%
13,CCOc1ccccc1CNc1ncnc2onc(C)c12,-5.16%
14,c1ccc(CCNc2cc(-c3ccccc3)nc3nncn23)cc1,-2.57%
15,COCCNC(=O)CNC(=S)N(Cc1ccccc1)Cc1cccs1,-0.406%
16,c1cnc2[nH]c(SCCN3CCOCC3)nc2c1,-5.37%
17,N#C/C(=C(/O)c1ccc(Cl)cc1)c1nc2ccccc2[nH]1,-1.44%
18,O=C(C1CCN(S(=O)(=O)N2CCCCCC2)CC1)N1CCC2(CC1)OCCO2,-7.85%
19,OC(CN1CC=C(Cc2ccccc2)CC1)c1ccccc1 (centres unmarked),0.605%
20,COc1ccc(CNC(=O)c2cc(=O)c3cc(C)cc(C)c3o2)cc1,-5.08%
21,c1ccc2c(c1)ncn2CCN1CCCCC1,-1.54%
22,Cc1ccc2oc(=O)c3cnn(CC(=O)NCCN(C)C4CCCCC4)c3c2c1,-0.0115%
23,Cc1cccc(OCCCCn2ccnc2)c1C,2.7%
